From publication PMC6919601, “Identification of Plasmodium dipeptidyl aminopeptidase allosteric inhibitors by high throughput screening” (PLoS ONE, 2019) come the findings set out here.

“And” between values parts separate entries of the source, which are not always exact repeats. Equal entries are not always repeated. The whole screen tested about 110,000 compounds, of which about 230 (0.21%) showed an effect of 50% or more. The list shows a part of the results.
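Note: 30 min substrate incubation versus DMSO and 10 µM JCP410 controls.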

Chain of DPAP1 (Q8IIJ9 whole entry, looked up): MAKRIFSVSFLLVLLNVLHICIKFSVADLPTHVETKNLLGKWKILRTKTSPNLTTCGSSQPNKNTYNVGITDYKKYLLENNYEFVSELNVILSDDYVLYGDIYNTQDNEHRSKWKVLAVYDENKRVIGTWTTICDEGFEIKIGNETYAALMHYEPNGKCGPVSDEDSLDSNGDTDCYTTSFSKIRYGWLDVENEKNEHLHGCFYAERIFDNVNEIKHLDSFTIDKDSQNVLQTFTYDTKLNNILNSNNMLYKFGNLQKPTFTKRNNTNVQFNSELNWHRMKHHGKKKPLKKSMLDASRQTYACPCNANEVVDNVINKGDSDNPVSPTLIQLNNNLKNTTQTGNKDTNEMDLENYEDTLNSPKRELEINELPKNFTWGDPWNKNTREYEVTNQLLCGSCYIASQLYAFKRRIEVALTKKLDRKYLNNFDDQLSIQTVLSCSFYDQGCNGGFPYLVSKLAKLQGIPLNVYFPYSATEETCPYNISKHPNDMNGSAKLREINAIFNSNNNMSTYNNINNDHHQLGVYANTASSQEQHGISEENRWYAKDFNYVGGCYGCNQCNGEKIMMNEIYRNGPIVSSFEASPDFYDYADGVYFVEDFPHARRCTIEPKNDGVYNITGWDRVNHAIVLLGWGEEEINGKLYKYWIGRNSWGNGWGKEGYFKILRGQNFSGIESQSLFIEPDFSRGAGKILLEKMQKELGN

This test has as its target DPAP1 (Plasmodium falciparum, UniProt Q8IIJ9). As to the kind of experiment: primary screen, percent inhibition; read by cleavage of a fluorogenic dipeptide substrate; higher = more effect of the substance. On the set-up: species or system P. falciparum D10 trophozoite lysates; single well.
On to `OC1(c2ccc(OC(F)F)cc2)C[N+](c2ccccc2)=C2CCCCCN21` (stereo not shown), for which the “% Inhibition @ 10 uM” value is reported as -5.08%. To `CCOC(=O)N1CCN(C(=O)Nc2sc3nc4n(c(=O)c3c2C)CCC(C)CC4)CC1` (stereo not shown) belongs -1.7%; to `CC1(C)Cc2cc3c(cc2C(SCc2ccccc2)=N1)OCCO3`, -0.161%; to `Cc1ccc(-c2nc3ccccc3c(C(=O)O)c2C)s1`, 2.25%. To `COc1ccc(S(=O)(=O)Cc2ccc(C(=O)N3CCN(c4ncccn4)CC3)o2)cc1` belongs -0.971%; to `CC(=O)Nc1cccc(C(=O)Nc2ccccc2Cl)c1`, -2%.

`CN1CCCN(Cc2cc(F)ccc2F)CC1`: the “% Inhibition @ 10 uM” value is recorded as -2.54%. In the case of `CCc1c(CN2CCc3ccccc3C2)csc1C` it was -3.61%; in that of `Cn1c(-c2ccc3c(c2)OCO3)cnc1NCc1cc(Br)ccc1F`, -1.11%. To `COC(=O)c1c(NC(=O)c2ccc(Br)o2)sc2c1CCC(C)C2` (stereo not shown) belongs -4.86%.

As to `CCOc1ccc(C(=O)Nc2nc(-c3cc4ccccc4oc3=O)cs2)cc1`, the “% Inhibition @ 10 uM” value amounted to 1.39%.

As to `COc1ccc(C2C(C#N)=C(N)N(c3ccc(OC)cc3)C3=C2C(=O)CCC3)cc1` (stereo not shown), the “% Inhibition @ 10 uM” value is 4.01%.

Regarding `CC1(C)CC2(CC3(C1)Nc1ccccc1S3)Nc1ccccc1S2` (stereo not shown), the “% Inhibition @ 10 uM” value is reported as 6.02%. To `COc1cccc(C2C(C#N)=C(N)Oc3nc(SC)nc(N)c32)c1` (stereo not shown) belongs -3.34%. Regarding `CC(Cc1ccc(OCCN2CCCCC2)cc1)N(C)C` (stereo not shown), the “% Inhibition @ 10 uM” value is -3.65%. Turning to `COC(=O)c1oc2ccc(OC)cc2c1NC(=O)c1ccc(C(F)(F)F)cc1`, the “% Inhibition @ 10 uM” value was -6.84%. To `O=C(NCc1ccccc1Cl)C(Cc1ccccc1)NS(=O)(=O)c1cccc2nsnc12` (stereo not shown) belongs 2%; to `COc1cccc(C2(O)CC(C(F)(F)F)=NN2C(=O)COc2ccccc2)c1` (stereo not shown), -2.66%; to `COc1cc(C(=O)NCc2cccc3ccccc23)cc(OC)c1OC`, 0.907%.

As for `CCCN1CCC(NCC2CCCO2)CC1` (stereo not shown), the “% Inhibition @ 10 uM” value was -4.01%.

Regarding `CC(C)CC(NC(=O)c1ccc(-c2csc(-c3cccnc3)n2)cc1)C(=O)NCC#N` (stereo not shown), the “% Inhibition @ 10 uM” value is -2.35%. To `COc1ccc(NC(=O)CN(c2cc(C)ccc2OC)S(=O)(=O)c2ccc(C)cc2)cc1` belongs -4.13%; to `COc1ccc(-c2nnc3sc(NC(=O)COc4ccccc4C)nn23)cc1OC`, -0.959%. To `COc1cc(C(=O)NCCc2nc3ccccc3n2C)cc(OC)c1OC` belongs 3.49%; to `FC(F)(F)c1ccc(NC2CCCC2)nc1`, -6.7%. To `COc1ccccc1CNC(=O)Nc1noc2c1COc1ccccc1-2` belongs -0.539%; to `Cc1ccc(C)c(NC(=O)CCCC(=O)O)c1`, -0.902%. For `O=C(c1cnn2c(C(F)(F)F)cc(-c3ccccc3)nc12)N1CCOCC1`, the “% Inhibition @ 10 uM” value is 14.4%. In the case of `Cc1nnc(Sc2nc3c(c(=O)[nH]c(=O)n3C)n2Cc2ccccc2Cl)s1` it was -2.71%; in that of `CC1CCN(c2nc3ccc(C(=O)N4CCC5(CC4)OCCO5)cc3s2)CC1`, -2.37%; in that of `N#CC1=C(SCc2ccccc2)NC(=O)C(C#N)C12CCCC2` (stereo not shown), -8.03%.

Turning to `Cc1ccc(CNc2nc3ccccc3n3nnnc23)cc1`, the “% Inhibition @ 10 uM” value is listed as -1.59%. To `Cc1ccc(NC(=O)C(c2ccccc2)c2ccccc2)c([N+](=O)[O-])c1` belongs 3.03%. In the case of `c1ccc(CCc2nn3c(COc4ccccc4)nnc3s2)cc1` it was 4.96%; in that of `CC(CCc1ccccc1)NC(=O)Cn1ncc2c3ccccc3nc-2c1O` (stereo not shown), 4.61%. In the case of `CCCSCCCNC(=O)c1ccc2c(c1)sc1nc(-c3ccc(F)cc3)cn12` it was 1.92%; in that of `COC(=O)/C(C#N)=C\c1cccc2ccccc12`, -0.597%. As to `OCC(O)CN(c1ccccc1)c1ccccc1` (stereo not shown), the “% Inhibition @ 10 uM” value came out at 1.44%. With `CCC(C)(O)C#CCN1CCCCC1` (stereo not shown), the “% Inhibition @ 10 uM” value was determined as 2.13%. To `CS(=O)(=O)CCC(C(=O)n1nnc2ccccc21)N1C(=O)c2ccccc2C1=O` (stereo not shown) belongs 2.95%; to `Cc1ccc(C2SCC(=O)Nc3c2c(C)nn3-c2ccccc2)cc1` (stereo not shown), -4.26%; to `O=C(Cc1ccccc1)NC1CCCCCC1`, 2.22%. To `CCOC(=O)c1ccc(-n2c(C)nc(=O)c(-c3ccccc3)c2C)cc1` belongs -1.05%; to `Cc1onc(-c2ccccc2Cl)c1C(=O)NC1CCS(=O)(=O)C1` (stereo not shown), 1.84%. To `CCOC(=O)N1CCC(NCCc2ccccc2)CC1` belongs -1.96%; to `CC1(C)OC(C)(C)/C(=C/c2c(Cl)cccc2Cl)C1=O`, -0.703%; to `O=C1NCCN/C1=C\C(=O)c1cccs1`, 0.565%.

Consider `Cn1c(C(=O)N2CCC(C(=O)NC3CCCc4ccccc43)CC2)cc2sccc21` (stereo not shown), for which the “% Inhibition @ 10 uM” value worked out at 4.95%. To `C=CCN(C(=O)c1oc(=O)c2ccccc2c1-c1ccccc1)C1CCCCC1` belongs 3.96%. In the case of `Cc1c(Cl)cccc1-n1nc(C)c2c(C)cc(=O)n(CC(=O)N3CCOCC3)c21` it was -0.477%. In the case of `COc1ccc(C2=N/C(=C\c3ccc(C)o3)C(=O)O2)c(Cl)c1` it was 6.56%; in that of `CCOc1ccc(CN2CCN(c3ccccc3)CC2)cc1`, -1.77%; in that of `O=S(=O)(NCc1ccccc1)c1ccccc1`, 2.94%. For the compound `COc1ccc(CNCc2ccccc2F)cc1`, the “% Inhibition @ 10 uM” value is given as 20.5%. Regarding `COc1c(Cl)cc(Cl)cc1C(=O)Nc1ccc(CN2CCOCC2)cc1`, the “% Inhibition @ 10 uM” value is recorded as -3.28%. In the case of `CC(C)S(=O)(=O)C1=NSC2=NC(=O)/C(=C\c3ccc(O)c(Br)c3)C(=N)N21` it was -5.27%; in that of `COc1ccccc1CN1CCN(Cc2ccncc2)CC1`, 1.35%. As for `CC1CN(C(=O)c2cc3c(=O)n4ccccc4nc3n2C)CC(C)O1` (stereo not shown), the “% Inhibition @ 10 uM” value was -1.55%. As for `COc1ccccc1/C=C(\NC(=O)c1cccc(C)c1)C(=O)Nc1ccccn1`, the “% Inhibition @ 10 uM” value is -7.23%. `CC1CCCC(C)N1C(=O)Nc1cccc(Cl)c1` (stereo not shown): the “% Inhibition @ 10 uM” value is -6.82%. In the case of `COCC(C)NC1CCN(CCc2ccccc2)CC1` (stereo not shown) it was 1.57%; in that of `COc1cc(OC)cc(C(=O)Nc2cc3c(cc2C(C)=O)OCO3)c1`, 1.59%; in that of `COC(=O)C1=C(C)N(C(C)c2ccccc2)C(=O)/C1=C\c1ccc(F)cc1` (stereo not shown), -5.14%. In the case of `Cc1ccc(-c2nc3ccccc3[nH]2)cc1N` it was 0.177%. To `CCN(CC)CCNC(=O)COc1ccc(F)cc1` belongs -5.19%; to `CCc1nnc(SC(CC)C(=O)NCCOC)c2cc3sccc3n12` (stereo not shown), 3.88%. In the case of `CN(CC(=O)NC1CCCCCC1)S(=O)(=O)c1ccc(F)cc1`, the “% Inhibition @ 10 uM” value is on record as 3.17%. To `CN(C)c1ccc2c(c1)OC(N)=C(C#N)C2c1ccc(Br)cc1` (stereo not shown) belongs -2.89%. In the case of `CSc1nc(N)nc2sc(C(=O)c3ccc(Cl)cc3)c(N)c12` it was 10.8%; in that of `c1csc(-c2csc3ncnc(N4CCCC4)c23)c1`, -4.62%.

On to `CC1CCC(N(C)CC(O)c2ccccc2)C1` (stereo not shown), for which the “% Inhibition @ 10 uM” value is listed as -1.64%.

Consider `Cn1cc(C(=O)Nc2ccc(Oc3ccccc3)cc2)cn1`, for which the “% Inhibition @ 10 uM” value is given as -4.59%.

As for `Cc1oc2c(C)c3oc(=O)c(CCC(=O)N4CCCC4)c(C)c3cc2c1C`, the “% Inhibition @ 10 uM” value was found to be 5.68%. In the case of `Cc1cc(NC(=O)CN2CCN(C(=O)c3ccccc3)CC2)c2ccccc2n1` it was -7.35%. In the case of `CC(=O)Nc1ccc(N2C(=O)c3cccc4c(C(=O)c5ccccc5)ccc(c34)C2=O)cc1` it was 6.43%.

Take `O=C(/C=C/c1ccc(Cl)cc1)NCc1ccccc1`: the “% Inhibition @ 10 uM” value is 3.9% and -1.62%.

In the case of `Cc1ccc(C(=O)Nc2ccccc2C(=O)O)cc1N`, the “% Inhibition @ 10 uM” value is recorded as 2.25%.

`O=C(NCCc1nc2ccccc2n1CCCOc1ccccc1)c1ccco1`: the “% Inhibition @ 10 uM” value worked out at 2.14%. To `CC1CCc2c(sc(NC(=O)c3ccc4c(c3)OCO4)c2C(N)=O)C1` (stereo not shown) belongs 1.88%; to `CC1CCN(S(=O)(=O)c2ccc3[nH]c4c(c3c2)CCCC4)CC1`, 0.434%; to `N=c1c(S(=O)(=O)c2ccc(Cl)cc2)cc2c(=O)n3ccccc3nc2n1C1CCCCC1`, 1.91%. To `Cc1cc(C(=O)N2CC3(C)CC2CC(C)(C)C3)on1` (stereo not shown) belongs -7.13%. Take `O=C1C2ON(c3ccc(Br)cc3)C(c3cccnc3)C2C(=O)N1C1CCCCC1` (stereo not shown): the “% Inhibition @ 10 uM” value is given as -2.54%. To `COc1ccc(OCC(O)CN2CCOCC2)cc1` (stereo not shown) belongs 1.27%; to `CC1(C)CC2=Nc3nc(SCc4ccccc4)nn3C(c3cccs3)C2=C(O)C1` (stereo not shown), -2.9%.

For `COc1ccccc1C1=N/C(=C\c2sccc2C)C(=O)O1`, the “% Inhibition @ 10 uM” value is listed as -0.251%. As to `CCOc1cc(Cl)c(C(C)NC(=O)c2cccc(OC)c2)cc1OCC` (stereo not shown), the “% Inhibition @ 10 uM” value is on record as -1.28%. As to `CCCCN(CCCC)CCNC(=O)CNC(=O)c1cccs1`, the “% Inhibition @ 10 uM” value is reported as 0.387%.

`Clc1ccc(CSc2nc3cccnc3[nH]2)cc1Cl`: the “% Inhibition @ 10 uM” value is on record as -1.02%. To `COc1ccc(CN2C(=O)c3cccnc3C2=O)cc1S(=O)(=O)N1CCCCC1C` (stereo not shown) belongs 2.76%; to `Cc1ccc(C)c(CN2CCOCC2)c1`, -2.02%; to `Fc1cccc(Cl)c1CN1CCN(c2cccc(Cl)c2)CC1`, -1.64%. To `Cc1cccc(NC(=O)C(C)Oc2ccccc2)c1` (stereo not shown) belongs 0.843%; to `O=C(c1cnn(-c2ccccc2)c1-n1cccc1)N1CCC(C(=O)N2CCOCC2)CC1`, 0.137%. To `CCOC(=O)N1CCN(c2nc(-c3ccccc3)cc(C(F)(F)F)n2)CC1` belongs -3.79%; to `c1ccc(-c2cc(N3CCOCC3)n3c(n2)nc2ccccc23)cc1`, 3.88%. On to `CC(C)C[C@H](NC(=O)c1ccc(-c2ccccc2NS(C)(=O)=O)c(Cl)c1)C(=O)NCC#N`, for which the “% Inhibition @ 10 uM” value is listed as -3.48%. As to `CCSc1cc(N2CCCC2)nc(-c2ccccc2)n1`, the “% Inhibition @ 10 uM” value is reported as -0.795%. To `O=C(NC(=S)N1CCCCCC1)c1ccco1` belongs 6.03%; to `O=C(NC1CCN(Cc2ccccc2)CC1)c1cnn(-c2ccccc2)c1-n1cccc1`, -1.58%; to `O=C(O)c1ccc(CN2CCN(c3ccccc3F)CC2)cc1`, 4.04%. Turning to `c1ccc(-c2nnn3c2nc(N2CCc4ccccc4C2)c2ccccc23)cc1`, the “% Inhibition @ 10 uM” value is given as 3.59%. In the case of `CC(C)(C)C(=O)N1CCCC1C(=O)Nc1ccccc1` (stereo not shown) it was 1.35%.
